35 compounds from the supplement of paper PMC4723716 can be followed below.

The test system of this test is Plasmodium falciparum NF54 stage V gametocytes. As to the kind of experiment: viability index relative to DMSO control (fraction); higher = less gametocyte killing. The conditions noted are these: 2.5 µM, incubation time: 72 h. The method, boiled down:
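Stage V gametocytes of P. falciparum NF54 were held in serum-free screening medium at 0.75% gametocytemia and 1.25% hematocrit, 10 µl per well of a 1,536-well plate, and exposed to compound at 2.5 µM for 72 hr at 37°C under low oxygen. A 3 µl mix of 2.5 µM MitoTracker Red CMXRos with 0.13% saponin was then added for one to two hours, after which one field per well was imaged and red particles of 20–70 µm2 were counted. The viability index equals this count divided by the plate mean from wells given solvent alone.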

Setting [1] is: library set: Broad Institute DOS.
[2] abbreviates: library set: Broad Institute Blood Stage.

± gives the uncertainty stated by the source. Whole data set: some 9,900 compounds, median “viability index relative to DMSO control” near 1, cut for the lowest 2% near 0.85. The list shows a part of the results.

As to `COCC#Cc1ccc([C@@H]2[C@H]3CN(C(=O)C4CCCCC4)CC(=O)N3[C@H]2CO)cc1`, the viability index under setting [1] worked out at 1.03 ± 0.048.

Regarding `COC(=O)C[C@H]1CC[C@@H]2[C@H](COC[C@@H](O)CN2S(=O)(=O)c2cn(C)cn2)O1`, the viability index under setting [1] is 1.043 ± 0.0028.

Take `CC(C)CNC[C@@H]1[C@@H](c2ccccc2)[C@@H](CO)N1Cc1ccc(F)cc1`: the viability index under setting [1] came out at 1.01 ± 0.036.

Take `C/C=C/c1ccc2n(c1=O)C[C@@H]1[C@@H](CO)[C@H](C(=O)NCc3cccc(OC)c3)N[C@H]21.C/C=C\c1ccc2n(c1=O)C[C@@H]1[C@@H](CO)[C@H](C(=O)NCc3cccc(OC)c3)N[C@H]21`: the viability index under setting [1] amounted to 0.999 ± 0.063.

In turn, `CCc1nc(N2[C@H](C#N)[C@@H](c3ccccc3-c3ccc(F)cc3)[C@@H]2CO)sc1C` registered a viability index under setting [1] of 1.07 ± 0.071.

Take `COc1ccc2c3c([C@H](CO)NC[C@]33CCN(Cc4ccc(cc4)-c4ccccn4)CC3)n(C)c2c1`: the viability index under setting [2] is 0.835 ± 0.04.

As to `O=C(C[C@@H]1CC[C@H]2[C@@H](COC[C@H](O)CN2S(=O)(=O)c2cccc(F)c2)O1)NCc1ccncn1`, under setting [1], the viability index worked out at 1.07 ± 0.069.

As to `C[C@@H]1CN([C@H](C)CO)C(=O)c2cc(C3=CCCC3)cnc2O[C@@H]1CN(C)C(=O)Nc1ccc(C(F)(F)F)cc1`, the viability index under setting [1] is 1.01 ± 0.13.

As for `COc1ccc2c3c([C@H](CO)N(Cc4ccccc4)C[C@]33CN(CC4CC4)C3)n(C)c2c1`, the viability index under setting [1] was determined as 0.923 ± 0.022.

Under setting [1], `CCCN1C[C@H](C)[C@@H](OC)CN(C)C(=O)c2cc(NS(=O)(=O)c3ccccc3)ccc2OC[C@H]1C` came in with a viability index of 0.932 ± 0.092.

Compound `COc1ccccc1CN1CC2(C1)[C@H](c1ccccc1)[C@@H](CO)N2Cc1ccccc1` returned a viability index under setting [2] of 0.878 ± 0.046.

As for `C[C@@H]1CN([C@@H](C)CO)C(=O)c2cc(NC(=O)C3CCCCC3)ccc2O[C@H]1CN(C)Cc1ccc2c(c1)OCO2`, the viability index under setting [1] stood at 1.05 ± 0.016.

As for `C[C@@H]1CCCCO[C@@H](CN(C)C(=O)c2ccncc2)[C@H](C)CN([C@@H](C)CO)C(=O)c2cc(NS(=O)(=O)c3cccs3)ccc2O1`, under setting [1], the viability index was determined as 1.17 ± 0.17.

In the case of `CCC(=O)N1[C@H](CO)[C@H](c2ccc(C#CC3(O)CCCC3)cc2)[C@@H]1CNC(C)=O`, under setting [1], the viability index was determined as 1.01 ± 0.022.

As to `O=C(N[C@@H]1C=C[C@@H](CC(=O)N2CCN(c3ccccc3)CC2)O[C@H]1CO)c1ccccc1`, under setting [1], the viability index turned out to be 1.06 ± 0.14.

Take `OC[C@H]1[C@@H](c2ccc(-c3cccnc3)cc2)[C@H]2CN(Cc3ccccn3)CCCCN21`: the viability index under setting [1] turned out to be 1.02 ± 0.035.

In turn, `Cc1ccccc1S(=O)(=O)N1C[C@@H]2N[C@H](C1)[C@H]2c1ccc(-c2cccc(C#N)c2)cc1` returned a viability index under setting [1] of 1.03 ± 0.033.

In turn, `C[C@@H]1CN([C@@H](C)CO)C(=O)c2cc(N(C)C)ccc2O[C@@H]1CN(C)Cc1ccc(Oc2ccccc2)cc1` gave a viability index under setting [1] of 0.926 ± 0.044.

The compound `O=C(Nc1ccccc1F)N1[C@@H]2CNC[C@H]1[C@H]2c1ccc(-c2ccncc2)cc1` registered a viability index under setting [1] of 1.079 ± 0.0082.

Under setting [1], `C[C@H]1CCCCO[C@H](CN(C)C(=O)Nc2ccc(C(F)(F)F)cc2)[C@@H](C)CN([C@@H](C)CO)C(=O)c2cc(NS(=O)(=O)c3cn(C)cn3)ccc2O1` showed a viability index of 1.01 ± 0.013.

Regarding `CCC(=O)N1CC2(C1)[C@@H](c1ccc(-c3ccc(F)cc3)cc1)[C@@H](CO)N2C(C)=O`, the viability index under setting [1] came to 1.09 ± 0.021.

Under setting [1], `C[C@H](CO)N1C[C@H](C)[C@H](CN(C)Cc2ccc(F)cc2)Oc2cc(C#CC(C)(C)O)ccc2S1(=O)=O` returned a viability index of 0.977 ± 0.069.

For the compound `O=C(NC[C@H]1[C@H](c2ccccc2)[C@H](CO)N1Cc1cccnc1)c1ccccn1`, the viability index under setting [1] came out at 0.984 ± 0.023.

Under setting [1], `O=C(C[C@@H]1C=C[C@@H](NC(=O)c2ccc3c(c2)OCO3)[C@H](CO)O1)NC1Cc2ccccc2C1` came in with a viability index of 1 ± 0.026.

Under setting [1], `N#Cc1cccc(-c2ccc([C@H]3[C@@H](CO)N[C@@H]3CNC(=O)C3CCC3)cc2)c1` displayed a viability index of 1.09 ± 0.084.

In turn, `CO[C@H]1CN(C)C(=O)c2ccc(NS(=O)(=O)CC(F)(F)F)cc2OC[C@@H](C)N(C(=O)NC(C)C)C[C@H]1C` came in with a viability index under setting [1] of 0.997 ± 0.11.

Under setting [1], `COc1ccccc1C#Cc1ccc([C@H]2[C@H](CO)N3CCCCN(C(=O)C4CCC4)C[C@@H]23)cc1` yielded a viability index of 0.967 ± 0.014.

For `CCS(=O)(=O)Nc1ccc2c(c1)C(=O)N(C)[C@H]1CC[C@H](CC(=O)NCCCN3CCOCC3)O[C@H]1CO2`, the viability index under setting [1] is 1.047 ± 0.009.

`CO[C@H]1CC[C@H]2CCOc3c(C#N)cccc3C(=O)N(C)C[C@H](OC)[C@@H](C)C(=O)N(C)C[C@H]1O2` registered a viability index under setting [1] of 1.064 ± 0.0017.

Under setting [1], `O=C(NC1CCCC1)N1CCCCN2[C@@H](CO)[C@@H](c3ccc(-c4cccnc4)cc3)[C@@H]2C1` yielded a viability index of 0.934 ± 0.044.

As to `C[C@H]1CN([C@@H](C)CO)C(=O)Cc2cc(NC(=O)Nc3ccc(F)cc3)ccc2O[C@@H]1CN(C)S(C)(=O)=O`, the viability index under setting [1] amounted to 0.968 ± 0.12.

Consider `Cc1ccc(S(=O)(=O)N(C)C[C@@H]2Oc3c(NS(C)(=O)=O)cccc3C(=O)N([C@@H](C)CO)C[C@H]2C)cc1`, for which, under setting [1], the viability index is 1.07 ± 0.068.

As to `O=C(C[C@H]1C=C[C@@H](NC(=O)Cc2cccnc2)[C@@H](CO)O1)NCc1ccc2c(c1)OCO2`, under setting [1], the viability index came to 1.12 ± 0.016.

Compound `Cc1ccc(-c2ccc([C@H]3[C@H]4CNC[C@@H]3N4C(=O)NC(C)C)cc2)cc1` had a viability index under setting [1] of 1.12 ± 0.069.

Regarding `CCNC(=O)[C@@H]1[C@@H](CO)[C@@H]2Cn3c(cccc3=O)[C@@H]2N1C(=O)CC1CC1`, the viability index under setting [1] worked out at 1.016 ± 0.0063.
